Reference: patent US20180280527A1 (COVAGEN, published 2018)

T1: huFGFR3 on KMS-11 cells (human, UniProt P22607 23-806)
T1 chain: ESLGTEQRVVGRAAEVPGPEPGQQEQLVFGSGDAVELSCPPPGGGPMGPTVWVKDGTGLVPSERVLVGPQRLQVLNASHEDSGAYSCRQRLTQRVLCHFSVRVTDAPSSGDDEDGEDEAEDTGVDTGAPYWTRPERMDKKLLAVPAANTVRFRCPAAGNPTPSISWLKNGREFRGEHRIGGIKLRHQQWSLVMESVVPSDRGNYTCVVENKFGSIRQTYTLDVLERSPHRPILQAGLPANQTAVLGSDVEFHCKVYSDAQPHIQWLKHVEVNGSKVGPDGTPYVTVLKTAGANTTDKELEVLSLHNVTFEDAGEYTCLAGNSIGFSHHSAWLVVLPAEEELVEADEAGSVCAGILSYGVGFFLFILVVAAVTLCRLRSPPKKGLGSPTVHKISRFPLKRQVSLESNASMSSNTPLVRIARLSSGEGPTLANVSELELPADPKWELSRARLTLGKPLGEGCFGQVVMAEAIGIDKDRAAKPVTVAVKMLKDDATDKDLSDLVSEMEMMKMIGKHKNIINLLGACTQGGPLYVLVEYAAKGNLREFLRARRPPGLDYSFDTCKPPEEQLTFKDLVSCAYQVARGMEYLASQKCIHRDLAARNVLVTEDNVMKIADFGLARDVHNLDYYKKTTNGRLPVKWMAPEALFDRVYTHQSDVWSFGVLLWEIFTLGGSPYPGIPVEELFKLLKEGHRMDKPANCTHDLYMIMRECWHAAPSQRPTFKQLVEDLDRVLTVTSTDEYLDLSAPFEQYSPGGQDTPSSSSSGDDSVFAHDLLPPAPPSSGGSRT

T2: muFGFR3c-His (murine, UniProt Q61851 33-369)
T2 construct: Whole entry as named; also called murine FGFR3 splice variant c
T2 sequence: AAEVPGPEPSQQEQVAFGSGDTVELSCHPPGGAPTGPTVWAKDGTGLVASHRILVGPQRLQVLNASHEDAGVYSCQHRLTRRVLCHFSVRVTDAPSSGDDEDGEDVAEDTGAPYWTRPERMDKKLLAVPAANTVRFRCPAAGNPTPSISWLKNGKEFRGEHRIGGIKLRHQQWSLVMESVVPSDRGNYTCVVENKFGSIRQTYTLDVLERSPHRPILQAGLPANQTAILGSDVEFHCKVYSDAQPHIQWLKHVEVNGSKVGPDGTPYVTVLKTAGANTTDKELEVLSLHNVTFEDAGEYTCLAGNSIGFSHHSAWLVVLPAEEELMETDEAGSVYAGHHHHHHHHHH


What was measured:
huFGFR3 on KMS-11 cells [1] = target: T1, huFGFR3 on KMS-11 cells; assay: cell-based or functional assay
huD1-D2-Fc [2] = target: T3, huD1-D2-Fc (human); assay: ELISA on coated huD1-D2-Fc, 200 nM Fynomer
T3 construct: Whole entry as named; also called huFGFR3-D1D2; domain 1 and domain 2 of human FGFR3
Procedure: (§1) Different antigens were coated on the plate (Maxisorp plate; Nunc 439454): huFGFR3b-Fc (SEQ ID NO: 12), huFGFR3c-Fc (SEQ ID NO: 13), cyFGFR3c-Fc (SEQ ID NO: 14), muFGFR3c-His (SEQ ID NO: 15), huD1-Fc (SEQ ID NO: 16), huD2-Fc (SEQ ID NO: 17), huD1-D2-Fc (SEQ ID NO: 18). [0166] The plate was coated with 100 ul antigen at 5 μg/ml (0.5 μg/well), and incubated at 4° C. overnight. The wells were washed 3× with PBS before being blocked with 200 μl 4% MPBS for 1 hr at RT. The wells were washed again, and 20 μl 10% MPBS containing 15 μg/ml 9E10 was added, before the addition of 80 μl Fynomer at 250 nM (200 nM final Fynomer concentration). The wells were incubated for 45 min at RT, before washing and the addition of 100 μl anti-mouse IgG-HRP (Sigma A2554) diluted 1:1000 in 2% MPBS. The wells were incubated for 30 min at RT, before washing 3× with 0.1% Tween-20 in PBS, and then 3× PBS. 100 μl BM POD Blue substrate (Roche 11 484 281 001) was added to each well followed by 50 μl 1M H₂SO₄ to stop the reaction. The absorbance 450 nm-650 nm was recorded using a Tecan M1000 instrument.

huD1-Fc = target: T4, huD1-Fc (human); assay: ELISA, antigen coated at 5 ug/ml, detection via 9E10
T4 construct: Whole entry as named; also called huFGFR3-D1; hFGFR3-D1
Procedure: as §1

huD2-Fc = target: T5, huD2-Fc (human); assay: as above
T5 construct: Whole entry as named; also called huFGFR3-D2; domain 2 of human FGFR3
Procedure: as §1

huFGFR3 on KMS-11 cells [3] = target: T1, huFGFR3 on KMS-11 cells; assay: flow cytometry on FGFR3-positive KMS-11 cells, Fynomer cross-linked with 9E10
muFGFR3c-His [4] = target: T2, muFGFR3c-His; assay: ELISA on coated muFGFR3c-His, 200 nM Fynomer
Procedure: as §1

huFGFR3 on KMS-11 cells [5] = target: T1, huFGFR3 on KMS-11 cells; assay: cell-based or functional assay
muFGFR3c-His [6] = target: T2, muFGFR3c-His; assay: specificity ELISA
huD1-D2-Fc [7] = target: T3, huD1-D2-Fc; assay: specificity ELISA
huFGFR3 on KMS-11 cells [8] = target: T1, huFGFR3 on KMS-11 cells; assay: flow cytometry, binding to FGFR3+ KMS-11 cells

| binding result (huD1-D2-Fc [2]) | EC50 (huFGFR3 on KMS-11 cells [3]) | binding result (muFGFR3c-His [4]) | EC50 (nM) in internalization assay (huFGFR3 on KMS-11 cells [5]) | binding result (muFGFR3c-His [6]) | binding result (huD1-D2-Fc [7]) | EC50 (huFGFR3 on KMS-11 cells [8]) | Binder | EC50 (nM) in internalization assay (cytotoxicity of Fynomer cross-linked with MMAF-conjugated 9E10 on KMS-11 cells) (huFGFR3 on KMS-11 cells [1]) | binding result (huD1-Fc) | binding result (huD2-Fc) |
| --- | --- | --- | --- | --- | --- | --- | --- | --- | --- | --- |
| binds | 2.2 nM | binds | – | – | – | – | FF44L65G12 (designed binder, C-terminal myc-hexahistidine tag; not shown: C-terminal myc-hexahistidine tag (pQE12 construct)) GVTLFVALYDYEVYGPTPMLSFHKGEKFQILRGGQGPYWEARSLTTGETGLIPSNYVAPVDSIQ | 2.5 nM | no binding (tested: 200 nM final Fynomer concentration) | no binding (tested: 200 nM final Fynomer concentration) |
| binds | 5.9 nM | binds | – | – | – | – | FF2L4C3 (designed binder, Expressed in E. coli with a C-terminal myc-hexahistidine tag; captured or cross-linked through anti-myc antibody 9E10 in the assays; also called parental Fynomer FF2L4C3; not shown: C-terminal myc-hexahistidine tag (pQE12 construct)) GVTLFVALYDYEVYGPTPMLSFHKGEKFQILNSSEGPYWEARSLTTGETGLIPSNYVAPVDSIQ | 28.5 nM and 21 nM and 26.4 nM | no binding (tested: 200 nM final Fynomer concentration) | no binding (tested: 200 nM final Fynomer concentration) |
| binds | 1.2 nM | binds | – | – | – | – | FF43L65D5 (designed binder, C-terminal myc-hexahistidine tag; not shown: C-terminal myc-hexahistidine tag (pQE12 construct)) GVTLFVALYDYEVYGPTPMLSFHKGEKFQILRKGKGPYWEARSLATGETGLIPSNYVAPVDSIQ | 0.8 nM | no binding (tested: 200 nM final Fynomer concentration) | no binding (tested: 200 nM final Fynomer concentration) |
| binds | 2.3 nM | binds | – | – | – | – | FF48L66G7 (designed binder, C-terminal myc-hexahistidine tag; not shown: C-terminal myc-hexahistidine tag (pQE12 construct)) GVTLFVALYDYEVYGPTPMLSFHKGEKFQILKGGSGPYWEARSLTTGETGLIPSNYVAPVDSIQ | 2.4 nM | no binding (tested: 200 nM final Fynomer concentration) | no binding (tested: 200 nM final Fynomer concentration) |
| binds | 0.6 nM | binds | – | – | – | – | FF44L65B7 (designed binder, C-terminal myc-hexahistidine tag; not shown: C-terminal myc-hexahistidine tag (pQE12 construct)) GVTLFVALYDYEVYGPTPMLSFHKGEKFQILRRGSGPYWEARSLTTGETGLIPSNYVAPVDSIQ | 1.8 nM | no binding (tested: 200 nM final Fynomer concentration) | no binding (tested: 200 nM final Fynomer concentration) |
| binds | 4.2 nM | binds | – | – | – | – | FF44L65G7 (designed binder, C-terminal myc-hexahistidine tag; not shown: C-terminal myc-hexahistidine tag (pQE12 construct)) GVTLFVALYDYEVYGPTPMLSFHKGEKFQILRGGDGPYWEARSLTTGETGLIPSNYVAPVDSIQ | 2.6 nM | no binding (tested: 200 nM final Fynomer concentration) | no binding (tested: 200 nM final Fynomer concentration) |
| – | – | – | 4.7 nM | binds | binds | 6.6 nM | FF40L54A5 (designed binder, also called alternative Fynomer; not shown: C-terminal myc-hexahistidine tag as for the screened Fynomers; not restated for this Fynomer) GVTLFVALYDYEVMSTTALSFHKGEKFQILSQSPHGQYWEARSLTTGETGWIPSNYVAPVDSIQ | – | – | – |

“And” between values parts separate entries of the source, which are not always exact repeats. Equal entries are not always repeated.
